# Patent publication US11660340B2, “Combination therapy using T cell redirection antigen binding molecule against cell having immunosuppressing function” (CHUGAI SEIYAKU KABUSHIKI KAISHA, priority 2015, dated 2023)
# T1: mouse CD3 (Mus musculus, UniProt P22646)
# T1 sequence (P22646 22-108 limits assumed): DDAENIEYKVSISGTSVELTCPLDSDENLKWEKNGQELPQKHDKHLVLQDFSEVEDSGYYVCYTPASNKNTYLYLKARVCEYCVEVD
# B1: hUH02UL01/2C11-F760: anti-mouse CTLA4/anti-mouse CD3 bispecific antibody, human IgG1 constant regions F760nN17/F760nP17 with reduced Fcγ receptor binding (antibody)
# heavy 1: QVQLQESGPGLVKPSETLSLTCTVSGYSISSGYGWNWIRQPPGKGLEWIGFIYYEGSTYYNPSIKSRISITRDTSKNQFFLQVNSVTTEDTATYYCARQTGYFDYWGQGTLVTVSSASTKGPSVFPLAPSSKSTSGGTAALGCLVKDYFPEPVTVSWNSGALTSGVHTFPAVLQSSGLYSLSSVVTVPSSSLGTQTYICNVNHKPSNTKVDKKVEPKSCDKTHTCPPCPAPELRGGPKVFLFPPKPKDTLMISRTPEVTCVVVDVSHEDPEVKFNWYVDGVEVHNAKTKPREEQYASTYRVVSVLTVLHQDWLNGKEYKCKVSNKALPAPIEKTISKAKGQPREPQVYTLPPSRDELTKNQVSLTCLVKGFYPSDIAVEWESNGQPENNYKTTPPYLDSDGSFFLYSKLTVDKSRWQQGNVFSCSVMHEALHNHYTQESLSLSP
# light 1: DIVMTQSPDSLAVSLGERATINCKSSQSLFNSNAKTNYLNWYQQKPGQPPKLLIYYASTRHTGVPDRFSGSGSGTDFTLTISSLQAEDVAVYYCQQWYDYPYTFGAGTKVEIKRTVAAPSVFIFPPSDEQLKSGTASVVCLLNNFYPREAKVQWKVDNALQSGNSQESVTEQDSKDSTYSLSSTLTLSKADYEKHKVYACEVTHQGLSSPVTKSFNRGEC
# heavy 2: EVQLVESGGGLVQPGKSLKLSCEASGFTFSGYGMHWVRQAPGRGLESVAYITSSSINIKYADAVKGRFTVSRDNAKNLLFLQMNILKSEDTAMYYCARFDWDKNYWGQGTMVTVSSASTKGPSVFPLAPSSKSTSGGTAALGCLVKDYFPEPVTVSWNSGALTSGVHTFPAVLQSSGLYSLSSVVTVPSSSLGTQTYICNVNHKPSNTKVDKKVEPKSCDKTHTCPPCPAPELRGGPKVFLFPPKPKDTLMISRTPEVTCVVVDVSHEDPEVKFNWYVDGVEVHNAKTKPREEQYASTYRVVSVLTVLHQDWLNGKEYKCKVSNKALPAPIEKTISKAKGQPREPQVYTLPPSRKELTKNQVSLTCLVKGFYPSDIAVEWESNGQPENNYKTTPPYLDSDGSFFLYSKLTVDKSRWQQGNVFSCSVMHEALHNHYTQKSLSLSP
# light 2: DIQMTQSPSSLPASLGDRVTINCQASQDISNYLNWYQQKPGKAPKLLIYYTNKLADGVPSRFSGSGSGRDSSFTISSLESEDIGSYYCQQYYNYPWTFGPGTKLEIKRTVAAPSVFIFPPSDEQLKSGTASVVCLLNNFYPREAKVQWKVDNALQSGNSQESVTEQDSKDSTYSLSSTLTLSKADYEKHKVYACEVTHQGLSSPVTKSFNRGEC
# Legend:
# [1] = target: mouse CTLA4 (Mus musculus, UniProt P09793); assay: Biacore T200 antigen binding of bispecific antibody; settings: analyte mouse CTLA4, 37° C., HBS-EP+ pH7.4
# mouse CTLA4, sequence (P09793 36-223): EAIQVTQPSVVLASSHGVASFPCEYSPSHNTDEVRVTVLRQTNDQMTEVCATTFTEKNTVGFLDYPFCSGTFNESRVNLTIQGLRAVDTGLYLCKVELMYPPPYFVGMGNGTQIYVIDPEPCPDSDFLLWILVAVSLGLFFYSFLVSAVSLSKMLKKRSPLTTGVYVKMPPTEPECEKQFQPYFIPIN
# Method: (§1) Anti-mouse CTLA4/anti-mouse CD3 bispecific antibodies (hUH02UL01/2C11-F760) purified and prepared by the method of Reference Example 3-1 were analyzed for their antigen-antibody reactions with each antigen (mCTLA4 and mCD3) using Biacore™ T200 (GE Healthcare). The running buffer used was HBS-EP+ at pH7.4, and measurements were taken at 37° C. Protein A/G was immobilized onto a Sensor Chip CM4 by amine coupling. hUH02UL01/2C11-F760 was captured onto the sensor chip, and then the antigen (mouse CTLA4 or mouse CD3) was allowed to interact as an analyte (for 120 seconds for mouse CTLA4 and for 90 seconds for mouse CD3), and changes in the bound amount were observed. The running buffer was used for dilution of hUH02UL01/2C11-F760. The measurement results were analyzed by curve fitting using the Biacore™ T200 Evaluation Software (GE Healthcare) to calculate the association rate constants ka (l/Ms) and the dissociation rate constants kd (l/s). From those values, the dissociation constants KD (M) were determined.
# [2] = target: T1, mouse CD3; assay: as above; settings: analyte mouse CD3, 37° C., HBS-EP+ pH7.4
# Method: as §1
# [3] = tested on: mouse CTLA4-expressing cell lines (CHO/mCTLA4); assay: Cytotoxic activity (cell proliferation inhibition, xCELLigence) with mouse splenocytes as effector cells; assay type: cell-based; settings: antibody 0.04, 0.4, 4, 40 μg/ml, 72 hours, FIG. 6
# Method: Whether anti-mouse CTLA4/anti-mouse CD3 bispecific antibody (hUH02UL01/2C11-F760) purified and prepared by the method of Reference Example 3-1 exerts cytotoxic activity on mouse CTLA4-expressing cell lines was examined according to the method of Reference Example 12.
# Regarding the anti-mouse CTLA4/anti-mouse CD3 bispecific antibody (hUH02UL01/2C11-F760), antibody concentration-dependent cytotoxic activity of the test antibody was measured using mouse splenocytes as effector cells, and by following the method described below.
# Ten mL of 10% FBS/RPMI was added to the spleen excised from a BALB/c mouse. The spleen was sliced into small pieces and passed through a cell strainer. After centrifugation (at 2,150 rpm for ten minutes at room temperature), a hemolysis procedure was performed using a Mouse Erythrocyte Lysing Kit (R&D Systems). After washing once with 10% FBS/RPMI, the cells were suspended in 10% FBS/RPMI at a cell density of 6×10^6 cells/ml. The cell suspension was used as the mouse splenocyte solution in the subsequent experiments.
# Cytotoxic activity was evaluated by cell proliferation inhibition rate using the xCELLigence® Real-Time Cell Analyzer (Roche Diagnostics K.K.). CHO/mCTLA4 which is CHO forced to express mouse CTLA4 was used as the target cells. […]
# [4] = target: T2, mouse CTLA4/mouse CD3-bound beads and mouse CD3-bound beads (Mus musculus, UniProt P09793+P22646); assay: AlphaScreen crosslinking between mouse CTLA4/mouse CD3-bound beads and mouse CD3-bound beads; assay type: binding; settings: 100 nmol/L antibody; donor beads with biotinylated mouse CTLA4 and mouse CD3, mouse CD3-acceptor beads; FIG. 7-3
# T2 construct: biotin (biotinylated); biotin (on the donor-bead portion only)
# Method: Next, 100 nmol/L of biotinylated mouse CTLA4 and 10 nmol/L of biotinylated mouse CD3 were added to AlphaScreen™ Streptavidin-coated Donor Beads (PerkinElmer) to produce donor beads that mimic regulatory T cells expressing CTLA4 and CD3. Whether addition of 100 nmol/L of hUH02UL01/2C11-F760 can cause crosslinking between donor beads and acceptor beads in the presence of 50 μg/mL mouse CD3-acceptor beads (acceptor beads mimicking effector T cells) was examined. The condition in which hUH02UL01/2C11-F760 is not added to 100 nmol/L of biotinylated mouse CTLA4; 50 μg/mL of AlphaScreen™ Streptavidin-coated Donor Beads (PerkinElmer); and 50 μg/mL of mouse CD3-acceptor beads was used as the control in which crosslinking between each of the beads are not caused. All experiments were performed three times.
# [5] = tested on: mouse colorectal cancer cell line CT26.WT; assay: In vivo drug efficacy, CT26.WT-transplanted mice, intratumoral versus intravenous administration; settings: BALB/c mice, 100 μg/mouse i.t. or i.v., eight days after transplantation; FIG. 9
# Method: 1×10^6 CT26.WT cells (ATCC) were subcutaneously transplanted into the right abdomen of BALB/c mice (Japan Charles River) to establish solid tumor. Eight days after the transplantation, hUH02UL01/2C11-F760 was administered at a dose of 100 μg/mouse intratumorally (i.t.) or intravenously (i.v.) (n=5 for each group).
# [6] = tested on: mouse colorectal cancer cell line CT26.WT; assay: In vivo drug efficacy, CT26.WT-transplanted mice, intratumoral administration; settings: BALB/c mice, FIG. 8
# Method: 1×10^6 mouse colorectal cancer cell line CT26.WT cells (ATCC) were subcutaneously transplanted into the right abdomen of BALB/c mice (Japan Charles River) to establish solid tumor. Ten days after the transplantation, hUH02hUL01-mFa55 was administered at a dose of 200 μg/mouse and hUH02UL01/2C11-F760 was administered at a dose of 100 μg/mouse, intratumorally (i.t.) (n=2 for each group).
# [7] = target: T3, mouse CTLA4-bound beads and mouse CD3-bound beads (Mus musculus, UniProt P09793+P22646); assay: AlphaScreen crosslinking between mouse CTLA4-bound beads and mouse CD3-bound beads; assay type: binding; settings: 0, 20, 100, 500 nmol/L antibody; biotinylated mouse CTLA4 donor beads, mouse CD3-acceptor beads; FIG. 7-2
# T3 construct: biotin (biotinylated)
# Method: First, the present inventors investigated, using Alpha technology from Perkin Elmer Inc., construction of a system that can evaluate crosslinking between mouse CD3-immobilized beads and mouse CTLA4-immobilized beads using the anti-mouse CTLA4/anti-mouse CD3 bispecific antibody (hUH02UL01/2C11-F760) purified and prepared by the method of Reference Example 3-1. More specifically, 100 nmol/L of biotinylated mouse CTLA4; 0, 20, 100, or 500 nmol/L of hUH02UL01/2C11-F760; 50 μg/mL of AlphaScreen™ Streptavidin-coated Donor Beads (PerkinElmer); and mouse CD3-acceptor beads prepared by conjugating 50 μg/mL of mouse CD3 to AlphaScreen™ Unconjugated Acceptor Beads (PerkinElmer) were used. Under this condition, it was thought that biotinylated mouse CTLA4 bound to AlphaScreen™ Streptavidin-coated Donor Beads and mouse CD3-acceptor beads may be crosslinked by hUH02UL01/2C11-F760 as shown in FIG. 7-1, and chemiluminescence may be emitted. Alpha 384 (PerkinElmer) was used as the plate, and the measurements were taken using Envision. All experiments were performed three times.
molecule,measurement,setting,value
B1,ka,[1],430000 M⁻¹ s⁻¹
same,kd,[1],0.00053 s⁻¹
same,ka,[2],61600 M⁻¹ s⁻¹
same,kd,[2],0.0712 s⁻¹
same,cytotoxic activity (cell proliferation inhibition rate),[3],cytotoxic activity in an antibody concentration-dependent manner
same,crosslinking between donor beads and acceptor beads,[4],crosslinks the donor bead and acceptor bead
same,"antitumor effects, intratumoral versus intravenous administration",[5],equivalent antitumor effects in both intratumoral and intravenous administration
same,antitumor effects (tumor volume),"[6]; 100 μg/mouse i.t., ten days after transplantation",remarkable antitumor effects
same,antitumor effects in comparison to hUH02hUL01-mFa55,"[6]; i.t., hUH02UL01/2C11-F760 100 μg/mouse vs hUH02hUL01-mFa55 200 μg/mouse",stronger antitumor effects
same,crosslinking between beads (chemiluminescence),[7],concentration-dependent crosslinking between beads was observed
